# According to patent US20220002408A1 (EXCYTELLC, published 2022):
# T1: CD19 on Raji cells (CD19-positive cells) (human, UniProt P15391 20-556)
# T1 sequence (looked up): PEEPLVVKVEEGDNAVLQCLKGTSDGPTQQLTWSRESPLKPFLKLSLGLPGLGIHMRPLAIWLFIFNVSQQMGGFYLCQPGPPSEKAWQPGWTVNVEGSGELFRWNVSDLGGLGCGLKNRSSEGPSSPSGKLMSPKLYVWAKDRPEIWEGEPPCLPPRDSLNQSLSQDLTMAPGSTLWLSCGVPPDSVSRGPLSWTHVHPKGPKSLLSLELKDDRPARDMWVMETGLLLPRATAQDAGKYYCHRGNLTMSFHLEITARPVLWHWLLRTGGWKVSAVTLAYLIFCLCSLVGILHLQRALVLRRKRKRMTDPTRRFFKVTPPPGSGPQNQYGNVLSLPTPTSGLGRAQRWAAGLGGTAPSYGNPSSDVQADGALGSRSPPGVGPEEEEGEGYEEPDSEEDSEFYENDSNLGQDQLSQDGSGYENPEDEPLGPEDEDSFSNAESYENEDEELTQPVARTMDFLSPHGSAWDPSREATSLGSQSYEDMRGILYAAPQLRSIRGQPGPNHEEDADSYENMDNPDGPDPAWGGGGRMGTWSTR
# B1: bispecific antibody YK002 (bispecific antibody, human IgG4 S228P, kappa)
# heavy: QVQLQQSGAELVRPGSSVKISCKASGYAFSSYWMNWVKQRPGQGLEWIGQIWPGDGDTNYNGKFKGKATLTADESSSTAYMQLSSLASEDSAVYFCARRETTTVGRYYYAMDYWGQGTTVTVSSASTKGPSVFPLAPCSRSTSESTAALGCLVKDYFPEPVTVSWNSGALTSGVHTFPAVLQSSGLYSLSSVVTVPSSSLGTKTYTCNVDHKPSNTKVDKRV[human IgG4 Fc with S228P (EU numbers) omitted]GGGGSGGGGSGGGGSDIQMTQSPSSLSASVGDRVTITCRASQDIRNYLNWYQQKPGKAPKLLIYYTSRLESGVPSRFSGSGSGTDYTLTISSLQPEDFATYYCQQGNTLPWTFGCGTKVEIKGGGGSGGGGSGGGGSEVQLVESGGGLVQPGGSLRLSCAASGYSFTGYTMNWVRQAPGKCLEWVALINPYKGVTTYADSVKGRFTISVDKSKNTAYLQMNSLRAEDTAVYYCARSGYYGDSDWYFDVWGQGTLVTVSS
# light: DIQLTQSPASLAVSLGQRATISCKASQSVDYDGDSYLNWYQQIPGQPPKLLIYDASNLVSGIPPRFSGSGSGTDFTLNIHPVEKVDAATYHCQQSTEDPWTFGGGTKLEIKRTVAAPSVFIFPPSDEQLKSGTASVVCLLNNFYPREAKVQWKVDNALQSGNSQESVTEQDSKDSTYSLSSTLTLSKADYEKHKVYACEVTHQGLSSPVTKSFNRGEC
# Biological target: T1, CD19 on Raji cells (CD19-positive cells)
# Test: cell-based or functional assay
binder,measurement,value
B1,"IC50 of target cell killing (PBMC killing of Raji-Luc cells, luciferase read-out, 18 h)",2.45 pM
